# According to the supplement of paper PMC11417369:
# ± gives the standard deviation of the averaged measurements. The list shows a part of the results.
# System: PfAP2-G AP2 domain (GST-tagged)
# Experiment: gcPBM binding intensity (ln(normalized median fluorescence intensity)); higher = stronger DNA binding
# Procedure, shortened: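 Each value is the highest Masliner-normalised natural-log median intensity across replicate spots of either orientation of a probe. The probes were primer-extended double-stranded 36-bp intergenic genomic sequences on an Agilent 4 × 180k array, alongside negative controls, exposed for 1 h to GST-tagged P. falciparum DNA-binding domains expressed in E. coli. Bound protein was picked up with Alexa488 anti-GST antibody and scanned at 488 nm.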
row,Sequence,gcPBM binding intensity (ln)
1,TATAGCTATGTATTCACACATAATATAAACTTTAAT [CACACA_site5889],9.93 ± 0.014
2,ATATTAAACAGACACACACACATATATTTATTTATA [CACACA_site7564],10.01 ± 0.021
3,TATAGCATATCTCACACACACATAATGAATATTATA [CACACA_site5877],9.87 ± 0.085
4,TAATATTCCTTTTTAACACACATATGAACAAATAAA [CACACA_site153],10.1 ± 0.16
5,ATAAAATGAAATATATATGTGTATGCTTAACTTGTT [CACACA_negctrl_site431],9.835 ± 0.007
6,AAAGGATGTAATATAAACATATATATGTATATATAT [TGCATGCA_negctrl_site347],9.565 ± 0.035
7,TAATTTTTTTTAATAACACACATATATATATATATA [CACACA_site813],10.2 ± 0.69
8,ATTGTTTTATATAGAACACACATAAAAATATATATG [CACACA_site1193],10.2 ± 0.23
9,AATAAAATATTATGTGCATGCTGTTTTATTTATTAA [TGCATGCA_site102],9.56 ± 0.32
10,TTGGTGGATAAATTTACACACAATAATTTTCGTTCA [CACACA_site467],10 ± 0.14
11,AATTCACCAAAAAAAGTGCATATTCAATATATATTA,10 ± 0.15
12,ACAAAATGTAAATAAACACACATATTTATATTTATA [CACACA_site6719],9.79 ± 0.042
13,ATATATATATATATATGTACATATGTGTATATAACT [XGTACX_site495],11.1 ± 0.56
14,AAATAAAAAAATACCCAACACCATGCCAAATGTGAA [CACACA_negctrl_site411],9.89 ± 0.13
15,TAAAACAAAACAAAAATAGGATTATATTCCTTTTTT [CACACA_negctrl_site1003],9.59 ± 0.3
16,ATAATTTCAATATTTAATATCATATATATATATTTT [GTGCAC_negctrl_site713],9.56 ± 0.13
17,TAAAATTCGAAAAATTGTACTATTTATATATCTGTA [XGTACX_site6478],10.9 ± 0.65
18,CTAATTAATATTTGTACACACATATTTAACCTACTA [CACACA_site3191],11.4 ± 0.95
19,TATATAAGTATAAAATGTACATAAAATTTTATGTTA [XGTACX_site2613],11.1 ± 0.76
20,TAGTTAGGCCCTACATGTACATAATATATATTACTT [XGTACX_site1137],11.1 ± 0.47
21,ATCAACATTACATTTAGTACACATATATTTCTATGT [XGTACX_site4436],11.2 ± 0.76
22,TATGTTGATGATGATAGTACATATGAGTTCAAAAAA [XGTACX_site7712],10.9 ± 0.63

row,Sequence,gcPBM binding intensity (ln)
1,AAGACACAAAAACACACACACATACATACATACATA [CACACA_site454],10.1 ± 0.18
2,TAAAAAAACGCACTCGTACACACATATTTTCTTTCT [CACACA_site3090],11.3 ± 0.8
3,TTTTATGATTGACACACACACAAAAAAAAAAAAAAA [CACACA_site7860],10.2 ± 0.59
4,TGTTTTGTTGTGTATTGTACTAATATAAATATATAA [XGTACX_site1852],11.3 ± 0.89
5,AAAAAAAGAAATAATAAAAAATATATATATATATAT [GTGCAC_negctrl_site702],10.1 ± 0.91
6,CGTACATAATTTTAATCACACACAAACAAACACATA [CACACA_site7947],10.6 ± 0.45
7,TATATTTGGAAAACATGTACATATAACAATATGTAA [XGTACX_site324],11.3 ± 0.8
8,AATAAAAAAGGAAACAAATTAATATATATATATATA [CACACA_negctrl_site467],9.89 ± 0.53
9,TTTAATACTTTATATGCATGCAGAGAAAAATGCTTG [TGCATGCA_site286],10 ± 0.12
10,AAAAAAAAGTATGATTCTAAATTTATGTATATATAA [GTGCAC_negctrl_site669],9.975 ± 0.021
11,GAAAGGGCAGGAACTATTAATACACTGATCGATAAG [CACACA_negctrl_site1458],10.2 ± 0.25
12,AATTATAGCTGTATCTGTACGCATTTATTTATAGAC [XGTACX_site5959],11.6 ± 1
13,TTAAATAATATTAGCCGTACAATTTAAAGATAATAA [XGTACX_site8503],11 ± 0.64
14,CAATTTTGCCCTTCCTGTACATATATTGAAAAATAT [XGTACX_site6388],11 ± 0.67
15,ATCTAGTACATACATACACACAACAATGTTATGAGA [CACACA_site3989],10.9 ± 0.71
16,ATACATATAGGATGCACACATAATTCAAATACAATA [CACACA_site651],10.2 ± 0.24
17,TTTGAAATATATTTAGTGCATATATATTGATTATAA [GTGCAC_site9604],10 ± 0.38
18,ATGAATATAATGAAGTGTACATAAAAATAATAAATA [XGTACX_site2481],11.5 ± 0.65
19,AAATAGAGAAATACAAGTACATATCAAACCAATCTA [XGTACX_site2756],11.1 ± 0.66
20,TTTATTTATTAATACACACACACACGCCCACAAAAT [CACACA_site6253],11.2 ± 0.8
21,AGGGACATATATATCACACACAAAAATTAGTCCCTT [CACACA_site2778],10.2 ± 0.049
22,TAAATATTTATAAACACACAAATATTTATATTTATA [CACACA_site6166],9.675 ± 0.092
